In all, about 48,000 compounds went through this assay and about 550 (1.1%) were called active. Another 4% or so got no clear call; they are omitted. Rule as the data show it: active = potency below about 15 µM; inconclusive = mostly about 16 µM to 33 µM; inactive = weaker than that. This is one part of the list.
Target: Lysosomal acid glucosylceramidase (Homo sapiens) (UniProt P04062)
Test: Glucocerebrosidase;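 also: the screen sought inhibitors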
Details: purified enzyme, resorufin glucoside fluorescence (screen aimed at inhibitors), 20 min; series mostly up to 77 µM
Method in brief: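 Compounds titrated against 0.2 nM normal enzyme, 30 uM resorufin beta-D-glucopyranoside substrate, citrate/phosphate buffer with taurocholate and tween-20, pH 5.9. Reaction ran 20 min at room temperature; fluorescence (Ex 548/Em 600) gave AC50.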
Potency is read from the fitted curve at half-maximal effect.

Chain of UniProt P04062 (P04062 whole entry, looked up): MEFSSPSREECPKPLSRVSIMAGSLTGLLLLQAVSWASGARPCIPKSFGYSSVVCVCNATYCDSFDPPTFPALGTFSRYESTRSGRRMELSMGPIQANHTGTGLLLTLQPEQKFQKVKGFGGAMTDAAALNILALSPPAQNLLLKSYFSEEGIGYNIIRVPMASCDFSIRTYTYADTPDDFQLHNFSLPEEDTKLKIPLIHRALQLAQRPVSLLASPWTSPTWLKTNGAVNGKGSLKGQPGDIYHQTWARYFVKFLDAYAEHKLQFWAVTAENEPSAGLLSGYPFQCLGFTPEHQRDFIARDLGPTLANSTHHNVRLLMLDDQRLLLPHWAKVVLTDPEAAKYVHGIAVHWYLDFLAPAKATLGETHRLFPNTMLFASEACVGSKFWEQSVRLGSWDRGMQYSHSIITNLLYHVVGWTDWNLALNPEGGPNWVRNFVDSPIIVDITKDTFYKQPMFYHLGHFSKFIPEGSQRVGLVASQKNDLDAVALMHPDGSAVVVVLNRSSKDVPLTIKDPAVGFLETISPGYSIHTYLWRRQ

Potency, inactive:
O=C(Cn1c(=O)n(-c2ccccc2)c(=O)c2sccc21)N1CCCC1 > 76.9 µM
CCOC(=O)C1CCN(Cc2cnc(NC(=O)OC)s2)CC1 > 76.9 µM
CCc1cc2cc(C(=O)Nc3ccccc3F)sc2s1 > 76.9 µM
O=C(CSc1ncn[nH]1)OCN1C(=O)c2ccccc2C1=O > 76.9 µM
CCCn1c(NC(=O)c2ccc(C)cc2)nc2ccccc21 > 76.9 µM
CCCC(OC(=O)CN1C(=O)COc2ccccc21)C(=O)NC1CCCC1 (stereo not drawn) > 76.9 µM
COc1ccc(NC(=O)CSc2nnc(-c3ccccn3)n2N)cc1Cl > 76.9 µM
FC(F)(F)C(F)(F)C(F)(F)c1nnc2ccc(N3CCOCC3)nn12 > 76.9 µM
COC(=O)c1[nH]c(C)c(/C(O)=C2\C(=O)C(=O)N(CCN(C)C)C2c2cccc(OC)c2OC)c1C (stereo not drawn) > 76.9 µM
NC(=O)COc1c(-c2ccccc2)oc2ccccc2c1=O > 76.9 µM
O=C(CCN1C(=O)C2C3C=CC(C3)C2C1=O)N1CCN(c2ccccc2Cl)CC1 (stereo not drawn) > 76.9 µM
COc1ccc(C(=O)CSc2nnc(-c3cc4ccccc4cc3O)n2Cc2ccco2)cc1 > 76.9 µM
Cc1cc(C)n(-c2nc3c(c(=O)[nH]c(=O)n3C)n2CC(C)C)n1 > 76.9 µM
N#CC1=C(N)Oc2cc(N)ccc2C1C1CCCCC1 (stereo not drawn) > 76.9 µM
Cc1ccc(CNC(=O)Cn2c(=O)oc3ccccc32)o1 > 76.9 µM
Cc1ccc(-n2ncc3c(=O)n(Cc4cccnc4)cnc32)cc1 > 76.9 µM
Cc1ccc(S(=O)(=O)N(C)CC(=O)Nc2nc3ccccc3s2)cc1 > 76.9 µM
COc1ccc(NC(=O)CSc2nnc(-c3ccncc3)n2CC2CCCO2)c(OC)c1 (stereo not drawn) > 76.9 µM
Nn1c(Cc2ccccc2F)nnc1SCn1nnc2ccccc2c1=O > 76.9 µM
CCC(=O)Nc1ccc(C(=O)n2ccc(C)n2)cc1 > 76.9 µM
COc1ccc(C2C3=C(CC(C)(C)CC3=O)Oc3ncn(CCO)c(=N)c32)cc1OC (stereo not drawn) > 76.9 µM
C/C=C(\C)c1nnc(NC(=O)OCC)s1 > 76.9 µM
O=C1CC(N2CCN(c3ccccc3F)CC2)C(=O)N1c1ccc2c(c1)OCCO2 (stereo not drawn) > 76.9 µM
Cc1cnc(C(=O)Nc2nnc(C(C)C)s2)cn1 > 76.9 µM
Cc1cc(C)nc(-n2nc(C)c(Sc3ccc(F)cc3)c2N)n1 > 76.9 µM
COCCCNC(=O)CCCn1c(=O)c2ccccc2n(CC(=O)Nc2c(C)cccc2C)c1=O > 76.9 µM
COc1cc2c(cc1OC)C(C)N(C(=O)CCN1C(=O)C3C4C=CC(C4)C3C1=O)CC2 (stereo not drawn) > 76.9 µM
CCCOc1ccc(C2C(=O)N(C3CCCCC3)CC(=O)N2C2CC2)cc1OC (stereo not drawn) > 76.9 µM
CSc1nnc2c3c4c(sc3nc(-n3nc(C)cc3C)n12)COC(C)(C)C4 > 76.9 µM
CCOc1ccccc1NC(=O)CN(C)S(=O)(=O)c1cccc2nsnc12 > 76.9 µM
CCN(CC(=O)Nc1ccc2c(c1)OCCO2)CC(=O)Nc1cc(C)on1 > 76.9 µM
NC(=O)CSc1oc(-c2cccs2)nc1S(=O)(=O)c1ccccc1 > 76.9 µM
Cc1ccc(P(=Nc2ccccc2)(N2CCOCC2)N2CCOCC2)o1 > 76.9 µM
Cc1nnc(NC(=O)CCC(=O)N2CCN(CCc3ccccc3)CC2)s1 > 76.9 µM
O=C(Nc1ccc(S(=O)(=O)N2CCOCC2)cc1)c1ccco1 > 76.9 µM
O=C(Nc1cccc(Cl)c1)N1CCN(c2ncccn2)CC1 > 76.9 µM
OCCn1c(-c2ccc3c(c2)OCO3)csc1=Nc1ccccc1 > 76.9 µM
O=C(CSc1nccn1-c1ccc(F)cc1)NCc1ccc2c(c1)OCO2 > 76.9 µM
CC(NC(=O)CSc1nc2ccccc2c(=O)[nH]1)c1ccccc1 (stereo not drawn) > 76.9 µM
O=c1cc(CSc2nc3cc(Cl)ccc3o2)nc2sccn12 > 76.9 µM
COc1ccc(CNC(=O)c2ccc3nccnc3c2)cc1 > 76.9 µM
CC(C(=O)NC1CCCc2ccccc21)N1CCN(Cc2ccc3c(c2)OCO3)CC1 (stereo not drawn) > 76.9 µM
CCn1c(CSc2nc(C)cc(C)n2)nnc1SCC(=O)N1CCCc2ccccc21 > 76.9 µM
CCOC(=O)N1CCN(S(=O)(=O)c2ccc3c(c2)OCC(=O)N3)CC1 > 76.9 µM
N#Cc1cc2cc3c(cc2nc1N1CCCCC1)OCCO3 > 76.9 µM
Cc1csc(SCc2ccccc2C(=O)O)n1 > 76.9 µM
O=C(OCC(=O)N1CCN(C(=O)c2ccco2)CC1)c1ccccc1C(=O)c1ccc(Cl)cc1 > 76.9 µM
CCCOC1CCCN(C(=O)c2cc(Cl)c(Cl)cc2C(=O)O)C1 (stereo not drawn) > 76.9 µM
Cc1cc(C2C(=O)C(C(=O)c3ccc(Cl)cc3)C(=O)CC2(C)C)on1 (stereo not drawn) > 76.9 µM
Cn1nc(C(=O)Nc2sccc2C(N)=O)ccc1=O > 76.9 µM
O=C(NCc1ccccc1)c1cccnc1N1CCOCC1 > 76.9 µM
Nc1ccc(C(=O)c2ccccc2C(=O)O)cc1Cl > 76.9 µM
COc1ccccc1NC(=O)CSc1nnc(CC(=O)Nc2ccccc2)n1C > 76.9 µM
Cc1cnc(NC(=O)c2ccc3c(c2)C(=O)N(Cc2ccco2)C3=O)s1 > 76.9 µM
CNc1cccccc1=S > 76.9 µM
CCc1nn(-c2cc(Cl)ccc2OC)c2c1C(=O)CCC2 > 76.9 µM
O=C(CCC1COc2ccccc2O1)Nc1cccnc1 (stereo not drawn) > 76.9 µM
COc1ccc(C)cc1S(=O)(=O)Nc1cccc(SC)c1 > 76.9 µM

From PubChem BioAssay AID360 (National Center for Advancing Translational Sciences (NCATS), 2006)
